Measurements: PubChem BioAssay (NCATS)
This list was built around the results that the source calls inconclusive (neither active nor inactive); the mix of calls is not that of the screen. Potencies of inconclusive entries are left out as doubtful fits. Calls of active or inactive are those of the source. Calls come from the whole dose curve; as a rule, active = well fitted inhibition curve with a large enough effect; inconclusive = small, poorly fitted or top-dose-only effect; inactive = no such curve, though single readings can be large or run the other way.

Experiment: qHTS Screen of the MIPE 4.0 Collection Against Ewings Sarcoma (EW8) (AID 1259255); note: nearly all actives have a fitted effect of over 35% in size
Conditions: EW8 Ewing sarcoma viability, CellTiter-Glo, 48 h; series mostly up to 45.8 µM
Summary of the method: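 Viability screen: 48 h incubation at 37C, 95% humidity, 5% CO2 with serially titrated compound, followed by CellTiter-Glo readout.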
Potency is the fitted concentration of half-maximal effect; tags give direction and shape of the fitted curve.

Structure (SMILES) | Potency
CC(C=CC=C(C)C=CC1=C(C)CCCC1(C)C)=CC=CC=C(C)C=CC=C(C)C=CC1=C(C)CCCC1(C)C | active: 14.8 µM
OCc1ccccc1O[C@@H]1O[C@H](CO)[C@H](O)[C@H](O)[C@H]1O | inactive
Cc1ccc(S(=O)(=O)Nc2nc3ccccc3nc2Nc2ccc3nsnc3c2)cc1 | inconclusive [inhibitor, single point]
COc1ccc(CCC(=O)Nc2nc3ccc(Cl)cc3s2)cc1OC | inconclusive [inhibitor, partial curve, poor fit]
CC(C(C)N1CC(=O)NC(=O)C1)N1CC(=O)NC(=O)C1 (stereo not drawn) | active: 0.743 µM
NC1(C(=O)N[C@@H](CCO)c2ccc(Cl)cc2)CCN(c2ncnc3[nH]ccc23)CC1 | inconclusive [inhibitor, partial curve]
Cc1ccc(NC(=O)Nc2cc(C(F)(F)F)ccc2F)cc1Nc1ccc2c(c1)NC(=O)C2=Cc1ccc[nH]1 | inconclusive [inhibitor, single point]
Cc1ccccc1C(=O)Nc1ccc(C(=O)N2CCCC(O)c3cc(Cl)ccc32)c(C)c1 (stereo not drawn) | inactive
O=C(CCCCCCC(=O)Nc1ccc([C@H]2O[C@@H](CSc3nc(-c4ccccc4)c(-c4ccccc4)o3)C[C@@H](c3ccc(CO)cc3)O2)cc1)NO | active: 4.69 µM
Nc1nc2c(c(=O)[nH]1)N(C=O)[C@H](CNc1ccc(C(=O)N[C@@H](CCC(=O)O)C(=O)O)cc1)CN2 | inactive
OCCN1C[C@H](O)[C@@H](O)[C@H](O)[C@@H]1CO | inactive
O=C(O)CCC=CCC[C@@H]1[C@H](N2CCCCC2)[C@@H](O)C[C@@H]1OCc1ccc(-c2ccccc2)cc1 | inconclusive [inhibitor, partial curve, poor fit]
CC(=O)OC[C@@H]1O[C@@H](n2ccc(=O)[nH]c2=O)[C@H](OC(C)=O)[C@H]1OC(C)=O | inactive
C[C@@H]1C(=O)O[C@H]2CC34[C@H]5C[C@@H](C(C)(C)C)C36[C@H](OC(=O)[C@@H]6O)O[C@@]4(C(=O)O5)[C@]21O (stereo partly drawn) | inactive
CCOC(=O)N1CCN([N+]([O-])=NOc2cc(ON=[N+]([O-])N3CCN(C(=O)OCC)CC3)c([N+](=O)[O-])cc2[N+](=O)[O-])CC1 | inconclusive [inhibitor, partial curve, poor fit]
CC(=O)O[C@H]1C[C@@H]2CC[C@H]3[C@H]4C[C@H]([N+]5(C)CCCCC5)[C@@H](OC(C)=O)[C@@]4(C)CC[C@@H]3[C@@]2(C)C[C@H]1[N+]1(C)CCCCC1 | active: 2.64 µM
Nc1cccc2c1C(=O)N(C1CCC(=O)NC1=O)C2=O (stereo not drawn) | inactive
O=S(=O)(O)c1ccc2cc(N=Nc3cc(S(=O)(=O)O)c4cccnc4c3O)ccc2c1 | inconclusive [inhibitor, partial curve]
CCOc1ccccc1N=Nc1c(C)[nH]n(-c2nc(-c3ccccc3)cs2)c1=O | inconclusive [inhibitor, partial curve, poor fit]
NC[C@H]1O[C@H](O[C@H]2[C@@H](O)[C@@H](O[C@H]3O[C@H](CO)[C@@H](O)[C@H](N)[C@@H]3O)[C@H](N)C[C@@H]2N)[C@H](N)C[C@H]1O | inactive
CCOC(=O)[C@H](CCc1ccccc1)N[C@@H](C)C(=O)N1CCCC1C(=O)O (stereo partly drawn) | inconclusive [inhibitor, partial curve]
NCCCC(O)(P(=O)(O)O)P(=O)(O)O | inactive
CC(C)(Sc1cc(C(C)(C)C)c(O)c(C(C)(C)C)c1)Sc1cc(C(C)(C)C)c(O)c(C(C)(C)C)c1 | inactive
OCC(O)C(O)C(O)CO (stereo not drawn) | inactive
CC1C(=O)OC2C(O)C34C5CC(C(C)(C)C)C36C(OC(=O)C6O)OC4(C(=O)O5)C12O (stereo not drawn) | inconclusive [inhibitor, partial curve]
CCn1c(-c2nonc2N)nc2cncc(CNC3CCNCC3)c21 | inconclusive [inhibitor, partial curve, poor fit]
O=C1Nc2ccc(I)cc2C1=Cc1cc(Br)c(O)c(Br)c1 | inconclusive [inhibitor, single point]
CC(C)c1nn(-c2c(Cl)cccc2Cl)c2nc(Cc3ccc(OCCO)cc3)[nH]c(=O)c12 | active: 0.148 µM
